# In the supplement of paper PMC9446081:
# The whole screen tested about 39,000 compounds, of which about 220 (0.56%) showed activity. The list shows a part of the results.
# Tested on: Escherichia coli K-12 BW25113
# Test: relative growth (OD600 normalised to plate interquartile mean) (fraction); higher = less growth inhibition, active = 0.2 or less
# Details: 50 µM; LB; incubation time: overnight (16-24 h)
# 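Also: static incubation at 37 °C against the wild-type strain, values averaged over two biological replicates.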
row,Structure (SMILES),relative growth
1,O=C(CN1CCCN(CC(=O)CN2C(=O)c3ccccc3C2=O)CC1)CN1C(=O)c2ccccc2C1=O,inactive: 0.995
2,CC(C)CC#Cc1ccc2c(c1)O[C@H](CN(C)C(=O)c1cccnc1)[C@@H](C)CN([C@@H](C)CO)S2(=O)=O,inactive: 1
3,COc1ccccc1S(=O)(=O)N(C)C[C@H]1Oc2cc(Br)ccc2S(=O)(=O)N([C@@H](C)CO)C[C@H]1C,inactive: 1.01
4,C[C@@H]1CN([C@H](C)CO)C(=O)c2cc(NC(=O)C3CCCCC3)ccc2O[C@@H](C)CCCCO[C@H]1CN(C)C(=O)NC1CCCCC1,inactive: 1.03
5,C[C@@H]1CN([C@H](C)CO)C(=O)c2cc(NC(=O)Nc3ccc(C(F)(F)F)cc3)ccc2O[C@@H](C)CCCCO[C@@H]1CN(C)S(=O)(=O)c1ccccc1,inactive: 0.996
6,C[C@H](CO)N1C[C@H](C)[C@H](CN(C)C(=O)Nc2ccccc2)Oc2ccc(NC(=O)Nc3ccc(C(F)(F)F)cc3)cc2CC1=O,inactive: 1.01
7,C[C@@H]1CCCCO[C@H](CN(C)Cc2ccc(Cl)c(Cl)c2)[C@@H](C)CN([C@H](C)CO)C(=O)c2cc(NC(=O)C3CCCCC3)ccc2O1,inactive: 1.03
8,COCC(=O)N1C[C@@H](C)[C@H](OC)CN(C)C(=O)c2cc(NC(=O)c3cc(C)on3)ccc2OC[C@H]1C,inactive: 0.969
9,C[C@@H]1CN([C@@H](C)CO)C(=O)c2cc(C#CCc3ccccc3)cnc2O[C@@H]1CN(C)CC1CCOCC1,inactive: 0.989
10,C[C@H]1CN([C@@H](C)CO)C(=O)c2cc(NC(=O)Nc3cccc4ccccc34)ccc2O[C@H]1CN(C)S(=O)(=O)c1ccc(Cl)cc1,inactive: 1.04
11,COc1ccc(NC(=O)N(C)C[C@H]2Oc3ncc(C#CCN(C)C)cc3C(=O)N([C@@H](C)CO)C[C@H]2C)cc1,inactive: 0.928
12,C[C@H]1CN([C@@H](C)CO)C(=O)Cc2cc(NC(=O)Nc3ccc(C(F)(F)F)cc3)ccc2O[C@@H]1CN(C)CC1CCCCC1,inactive: 0.987
13,O=C(C[C@H]1C=C[C@@H](NS(=O)(=O)c2ccccc2F)[C@@H](CO)O1)NCCCN1CCOCC1,inactive: 0.985
14,CC(C)CC#Cc1ccc2c(c1)O[C@H](CN(C)Cc1cncnc1)[C@H](C)CN([C@H](C)CO)S2(=O)=O,inactive: 0.979
15,C[C@H]1CN([C@@H](C)CO)C(=O)c2cc(Br)cnc2O[C@H]1CN(C)C(=O)c1ccc2c(c1)OCO2,inactive: 1.01
16,C[C@H](CO)N1C[C@H](C)[C@@H](CN(C)C(=O)CCN2CCCCC2)Oc2ncc(C#Cc3ccccc3)cc2C1=O,inactive: 1.01
17,C[C@@H]1CCCCO[C@H](CN(C)Cc2ccc(Cl)c(Cl)c2)[C@H](C)CN([C@@H](C)CO)C(=O)c2cc(NC(=O)c3ccccc3)ccc2O1,inactive: 1.03
18,CCN1CCN(C2=C(NS(=O)(=O)c3ccc(Br)s3)C(=O)c3ccccc3C2=O)CC1,inactive: 0.929

row,Structure (SMILES),relative growth
1,C[C@@H]1CN([C@H](C)CO)C(=O)c2cc(NC(=O)C3CCCCC3)ccc2O[C@H]1CN(C)Cc1ccc(C(F)(F)F)cc1,inactive: 1.03
2,Cc1noc(C)c1NC(=O)N[C@H]1CC[C@@H](CC(=O)NCCCN(C)C)O[C@H]1CO,inactive: 1.04
3,C[C@@H]1CN([C@H](C)CO)C(=O)c2cc(NC(=O)c3ccccc3)ccc2O[C@@H](C)CCCCO[C@@H]1CN(C)S(=O)(=O)c1ccc(Cl)cc1,inactive: 0.95
4,C[C@H](CO)N1C[C@H](C)[C@H](CN(C)CC2CC2)OCCCC[C@H](C)Oc2ccc(NC(=O)Cc3ccccc3)cc2C1=O,inactive: 1.04
5,C[C@@H]1CN([C@H](C)CO)S(=O)(=O)c2ccc(-c3ccc(C(=O)N(C)C)cc3)cc2O[C@H]1CN(C)C(=O)C1CCOCC1,inactive: 0.986
6,C[C@@H]1CCCCO[C@H](CN(C)CC2CCCCC2)[C@@H](C)CN([C@@H](C)CO)C(=O)c2cc(NS(=O)(=O)c3cccs3)ccc2O1,inactive: 0.974
7,C[C@H](CO)N1C[C@H](C)[C@H](CN(C)C(=O)Nc2ccc(F)cc2)OCCCC[C@H](C)Oc2ccc(NC(=O)C3CCCCC3)cc2C1=O,inactive: 1.02
8,Cn1ncc(Br)c1C(=O)O,inactive: 1.02
9,C[C@@H]1CN([C@H](C)CO)C(=O)Cc2cc(NC(=O)c3ccncc3)ccc2O[C@H]1CN(C)Cc1ccncc1,inactive: 1
10,O=C(CCN1CCNCC1)N1CCCCC1,inactive: 1.03
11,Cc1noc(C)c1NC(=O)N(C)C[C@H]1OCCCC[C@@H](C)Oc2ccc(NC(=O)C3CCCCC3)cc2C(=O)N([C@@H](C)CO)C[C@H]1C,inactive: 0.976
12,COc1ccc(S(=O)(=O)N(C)C[C@H]2Oc3c(cccc3N(C)C)C(=O)N([C@H](C)CO)C[C@@H]2C)cc1,inactive: 0.997
13,C[C@@H]1CN([C@H](C)CO)C(=O)c2cccc(NC(=O)C3CCCCC3)c2O[C@@H]1CN(C)Cc1ccc(Cl)c(Cl)c1,inactive: 1.01
14,Cc1noc(C)c1S(=O)(=O)Nc1ccc2c(c1)CC(=O)N([C@@H](C)CO)C[C@@H](C)[C@H](CN(C)S(=O)(=O)c1c(C)noc1C)O2,inactive: 1.03
15,C[C@@H]1CN([C@@H](C)CO)C(=O)c2cccc(NC(=O)c3nc4ccccc4s3)c2O[C@@H]1CN(C)Cc1ccc(-c2ccccc2)cc1,inactive: 0.994
16,CC(=O)N[C@H]1[C@H](O[C@H]2CC[C@]3(C)[C@H]4CC=C5[C@@H]6CC(C)(C)CC[C@]6(C(=O)O[C@H]6OC[C@@H](O)[C@@H](O)[C@@H]6O)[C@@H](O)C[C@@]5(C)[C@]4(C)CC[C@H]3C2(C)C)O[C@H](CO[C@H]2OC[C@@H](O)[C@@H](O[C@H]3OC[C@@H](O)[C@@H](O)[C@@H]3O)[C@@H]2O)[C@@H](O[C@@H]2O[C@@H](C)[C@H](O)[C@@H](O)[C@H]2O[C@@H]2O[C@@H](C)[C@H](O)[C@@H](O)[C@H]2O)[C@@H]1O,inactive: 0.985
17,C[C@@H]1CN([C@H](C)CO)C(=O)Cc2cc(NS(=O)(=O)c3ccc(Cl)cc3)ccc2O[C@@H]1CN(C)Cc1ccc(-c2ccccc2)cc1,inactive: 1.01
